# The list shows a part of the results.
# Columns and labels:
# Test in all cases: glycan array binding signal (z-score within array); higher = stronger binding
# Conditions in all cases: glycan notation: IUPAC condensed, linker removed
# [1] = target: Man(a1-2)Man(a1-3)[Man(a1-2)Man(a1-6)]Man(a1-6)[Man(a1-2)Man(a1-2)Man(a1-3)]Man
# Summary of the method: (§1)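 Arrays were curated from the Consortium for Functional Glycomics database, 3228 in total, and kept only where the protein sequence was available. Binding is expressed as a within-array Z-score. This score was averaged across arrays of the same protein sequence at different concentrations or buffers and across linkers, and negative values can be read as non-binding.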
# [2] = target: Man(a1-2)Man(a1-3)[Man(a1-2)Man(a1-6)]Man(a1-6)[Man(a1-2)Man(a1-2)Man(a1-3)]Man(b1-4)GlcNAc(b1-4)GlcNAc
# Summary of the method: as §1
# [3] = target: Man(a1-2)Man(a1-3)[Man(a1-6)]Man(a1-6)[Man(a1-2)Man(a1-3)]Man(b1-4)GlcNAc(b1-4)GlcNAc
# Summary of the method: as §1
# [4] = target: Man(a1-2)Man(a1-6)[Man(a1-3)]Man(a1-6)[Man(a1-2)Man(a1-2)Man(a1-3)]Man
# Summary of the method: as §1
# [5] = target: Man(a1-2)Man(a1-6)[Man(a1-3)]Man(a1-6)[Man(a1-2)Man(a1-2)Man(a1-3)]Man(b1-4)GlcNAc(b1-4)GlcNAc
# Summary of the method: as §1
# Man(a1-3)[Man(a1-6)]Man = target: Man(a1-3)[Man(a1-6)]Man
# Summary of the method: as §1
# [6] = target: Man(a1-3)[Man(a1-6)]Man(a1-6)[Man(a1-2)Man(a1-3)]Man(b1-4)GlcNAc(b1-4)GlcNAc
# Summary of the method: as §1
# [7] = target: Man(a1-3)[Man(a1-6)]Man(a1-6)[Man(a1-3)]Man
# Summary of the method: as §1
# [8] = target: Man(a1-3)[Man(a1-6)]Man(a1-6)[Man(a1-3)]Man(b1-4)GlcNAc(b1-4)GlcNAc
# Summary of the method: as §1
# [9] = target: Man(a1-3)[Man(a1-6)]Man(b1-4)GlcNAc(b1-4)GlcNAc
# Summary of the method: as §1
# [10] = target: Man(a1-3)[Man(a1-6)]Man(b1-4)GlcNAc(b1-4)[Fuc(a1-6)]GlcNAc
# Summary of the method: as §1
# Man(a1-6)Man = target: Man(a1-6)Man
# Summary of the method: as §1
# Man(b1-4)GlcNAc = target: Man(b1-4)GlcNAc
# Summary of the method: as §1
# MurNAc(b1-4)GlcNAc = target: MurNAc(b1-4)GlcNAc
# Summary of the method: as §1
# Neu5Ac(a2-3)Gal = target: Neu5Ac(a2-3)Gal
# Summary of the method: as §1
# [11] = target: Neu5Ac(a2-3)Gal(b1-3)GalNAc
# Summary of the method: as §1
# [12] = target: Neu5Ac(a2-3)Gal(b1-3)GalNAc(b1-3)Gal(a1-4)Gal(b1-4)Glc
# Summary of the method: as §1
# [13] = target: Neu5Ac(a2-3)Gal(b1-3)GalNAc(b1-4)[Neu5Ac(a2-3)]Gal(b1-4)Glc
# Summary of the method: as §1
# [14] = target: Neu5Ac(a2-3)Gal(b1-3)GalNAc(b1-4)[Neu5Ac(a2-8)Neu5Ac(a2-3)]Gal(b1-4)Glc
# Summary of the method: as §1
# [15] = target: Neu5Ac(a2-3)Gal(b1-3)GalNAc6S
# Summary of the method: as §1
# [16] = target: Neu5Ac(a2-3)Gal(b1-3)GlcNAc
# Summary of the method: as §1
# [17] = target: Neu5Ac(a2-3)Gal(b1-3)GlcNAc(b1-2)Man
# Summary of the method: as §1
# [18] = target: Neu5Ac(a2-3)Gal(b1-3)GlcNAc(b1-2)Man(a1-3)[GlcNAc(b1-4)][Neu5Ac(a2-3)Gal(b1-3)GlcNAc(b1-2)Man(a1-6)]Man(b1-4)GlcNAc(b1-4)GlcNAc
# Summary of the method: as §1
# [19] = target: Neu5Ac(a2-3)Gal(b1-3)GlcNAc(b1-2)Man(a1-3)[Neu5Ac(a2-3)Gal(b1-3)GlcNAc(b1-2)Man(a1-6)]Man(b1-4)GlcNAc(b1-4)GlcNAc
# Summary of the method: as §1
# [20] = target: Neu5Ac(a2-3)Gal(b1-3)GlcNAc(b1-3)Gal(b1-3)GlcNAc
# Summary of the method: as §1
# [21] = target: Neu5Ac(a2-3)Gal(b1-3)GlcNAc(b1-3)Gal(b1-4)GlcNAc
# Summary of the method: as §1
# [22] = target: Neu5Ac(a2-3)Gal(b1-3)GlcNAc(b1-3)GalNAc
# Summary of the method: as §1
# [23] = target: Neu5Ac(a2-3)Gal(b1-3)GlcNAc(b1-4)Gal(b1-4)Glc
# Summary of the method: as §1
# [24] = target: Neu5Ac(a2-3)Gal(b1-3)GlcNAc(b1-6)GalNAc
# Summary of the method: as §1
# [25] = target: Neu5Ac(a2-3)Gal(b1-3)GlcNAc6S
# Summary of the method: as §1
# [26] = target: Neu5Ac(a2-3)Gal(b1-3)[Fuc(a1-4)]GlcNAc
# Summary of the method: as §1
# [27] = target: Neu5Ac(a2-3)Gal(b1-3)[Fuc(a1-4)]GlcNAc(b1-3)Gal(b1-3)[Fuc(a1-4)]GlcNAc
# Summary of the method: as §1
# [28] = target: Neu5Ac(a2-3)Gal(b1-3)[Fuc(a1-4)]GlcNAc(b1-3)Gal(b1-4)[Fuc(a1-3)]GlcNAc
# Summary of the method: as §1
# [29] = target: Neu5Ac(a2-3)Gal(b1-3)[GlcNAc(b1-6)]GalNAc
# Summary of the method: as §1
# [30] = target: Neu5Ac(a2-3)Gal(b1-3)[Neu5Ac(a2-6)]GalNAc
# Summary of the method: as §1
# [31] = target: Neu5Ac(a2-3)Gal(b1-3)[Neu5Ac(a2-6)]GlcNAc(b1-3)[Fuc(a1-3)[Gal(b1-4)]GlcNAc(b1-6)]Gal(b1-4)Glc
# Summary of the method: as §1
# [32] = target: Neu5Ac(a2-3)Gal(b1-3)]Neu5Ac(a2-3)Gal(b1-4)]GlcNAc
# Summary of the method: as §1
binder,measurement,setting,value
GSL-I-B4 (Griffonia simplicifolia) (protein) NFWSDVEDSIIFQGDANTTAGTLQLCKTNQYGTPLQWSAGRALYSDPVQLWDNKTESVASFYTEFTFFLKITGNGPADGLAFFLAPPDSDVKDAGEYLGLFNKSTATQPSKNQVVAVEFDTWTNPNFPEPSYRHIGINVNSIVSVATKRWEDSDIFSGKIATARISYDGSAEILTVVLSYPDGSDYILSHSVDMRQNLPESVRVGISASTGNNQFLTVYILSWRFSSNLQSTSVKAAMEPEITRTVV,glycan array binding signal (z-score),[1],-0.158
same,glycan array binding signal (z-score),[2],-0.063
same,glycan array binding signal (z-score),[3],-0.177
same,glycan array binding signal (z-score),[4],-0.17
same,glycan array binding signal (z-score),[5],-0.18
same,glycan array binding signal (z-score),Man(a1-3)[Man(a1-6)]Man,-0.153
same,glycan array binding signal (z-score),[6],0.017
same,glycan array binding signal (z-score),[7],-0.116
same,glycan array binding signal (z-score),[8],-0.159
same,glycan array binding signal (z-score),[9],-0.15
same,glycan array binding signal (z-score),[10],-0.141
same,glycan array binding signal (z-score),Man(a1-6)Man,-0.202
same,glycan array binding signal (z-score),Man(b1-4)GlcNAc,-0.19
same,glycan array binding signal (z-score),MurNAc(b1-4)GlcNAc,-0.182
same,glycan array binding signal (z-score),Neu5Ac(a2-3)Gal,-0.149
same,glycan array binding signal (z-score),[11],-0.137
same,glycan array binding signal (z-score),[12],-0.102
same,glycan array binding signal (z-score),[13],-0.147
same,glycan array binding signal (z-score),[14],-0.187
same,glycan array binding signal (z-score),[15],-0.2
same,glycan array binding signal (z-score),[16],-0.178
same,glycan array binding signal (z-score),[17],-0.176
same,glycan array binding signal (z-score),[18],-0.151
same,glycan array binding signal (z-score),[19],-0.115
same,glycan array binding signal (z-score),[20],-0.169
same,glycan array binding signal (z-score),[21],-0.14
same,glycan array binding signal (z-score),[22],-0.117
same,glycan array binding signal (z-score),[23],-0.173
same,glycan array binding signal (z-score),[24],-0.198
same,glycan array binding signal (z-score),[25],-0.068
same,glycan array binding signal (z-score),[26],-0.207
same,glycan array binding signal (z-score),[27],-0.149
same,glycan array binding signal (z-score),[28],-0.102
same,glycan array binding signal (z-score),[29],-0.18
same,glycan array binding signal (z-score),[30],-0.166
same,glycan array binding signal (z-score),[31],-0.208
same,glycan array binding signal (z-score),[32],-0.222
